Here are results for 27 compounds from PubChem BioAssay (NCATS).

This is one part of the list. Shown are side measurements of this screen, not its main read-out; they come without a call. Compounds called inactive in the main read-out are mostly missing here. The note in brackets gives the kind of curve behind each potency; many fits are weak.

The experiment can be described thus: qHTS Assay for Lipid Storage Modulators (AID 1519). The note with it: Drosophila S3 cells, BODIPY lipid droplet/cell ratio, laser cytometry, cells loaded with oleic acid. In short, it runs like this:
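Cells seeded at 5,000 per well were treated with compounds over a concentration series and loaded with oleic acid (400 uM, as added). Lipid droplet fluorescence (488 nm excitation, 500-530 nm channel) was read by laser-scanning cytometry and normalized to 20 uM Triacsin C.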
In general terms: In qHTS, concentration-response curves come from the screen itself.

The mark [1] stands for this setting: measured here: cell count channel max response.
The mark [2] stands for this setting: measured here: lipid (BODIPY) channel AC50.
Setting [3] is: measured here: lipid channel max response.
The mark [4] stands for this setting: measured here: cell number channel AC50.
Tags describe the fitted curve by direction and shape.

Take `O=C(c1cnccn1)N1CCC2(CC1)CCN(c1ccccc1)CC2`: the max response under setting [1] came to 6.8% and the max response under setting [3] was determined as 11.9%. Further, under setting [2], the concentration at half-maximal activity (AC50) (usually the midpoint of the concentration-response curve, whichever way the signal moves) was 0.141 µM [rising, full curve, poor fit].
Consider `COc1ccc2c3c1OC1CC(O)C=C[C@@]31CCN(C)C2` (stereo partly specified), for which the max response was determined as 22.3% under setting [1] and 36.4% under setting [3]. The AC50 under setting [2] is 7.94 µM [rising, partial curve, poor fit].
Regarding `O=C(c1cnccn1)N1CCC2(CC1)CN(Cc1ccccc1)C2`, the max response is, setting by setting: under setting [1], 14.5%; under setting [3], 17.5%. In addition, the AC50 under setting [4] was 0.891 µM [rising, single point].
Take `CN(Cc1ccco1)c1cc(-c2cccnc2)ncn1`: the max response by setting is: under setting [1], 14.9%; under setting [3], 21.1%. In addition, the AC50 under setting [4] was 3.98 µM [rising, single point].
Consider `COc1cc2ccc(=O)oc2c(OC)c1OC`, for which the max response runs as follows: under setting [1], 12.2%; under setting [3], 31.6%. In addition, under setting [2], the concentration at half-maximal activity (AC50) is 22.4 µM [rising, partial curve].
In the case of `CN(C)C(=O)c1ccc(-c2nc(Nc3ccccc3)c3ccccc3n2)cc1`, the max response runs as follows: under setting [1], 7.79%; under setting [3], 11%. For the same compound, under setting [2], the AC50 is 0.0562 µM [rising, full curve].
As for `Cc1ccccc1-c1nccc(-n2ccnc2)n1`, the max response turned out to be 8.29% under setting [1] and 17.5% under setting [3]. Further, under setting [2], the half-maximal activity concentration (AC50) is 0.891 µM [rising, full curve, poor fit].
For the compound `COc1ccc(C(=O)N2CCC3(CCN(Cc4cc(C(F)(F)F)cc(C(F)(F)F)c4)CC3)CC2)cc1`, the max response reads like this: under setting [1], 17.6%; under setting [3], 17.8%. Moreover, the concentration at half-maximal activity (AC50) under setting [4] is 5.01 µM [rising, partial curve].
Consider `O=C(c1ccco1)N1CCC2(CCCN(Cc3ccncc3)C2)CC1`, for which the max response under setting [1] came to 18.9% and the max response under setting [3] was 35.2%. For the same compound, the AC50 under setting [2] is 3.98 µM [rising, partial curve, poor fit].
Take `COc1ccc(Oc2ncc3nc(C)c(=O)n(CCc4ccccc4)c3n2)cc1`: the max response was 15.2% under setting [1] and 20.6% under setting [3]. Under setting [2], the AC50 was 0.00891 µM [rising, full curve, poor fit].
On to `COc1ccc(Oc2ncc3nc(-c4ccc(F)cc4)c(=O)n(Cc4cccs4)c3n2)cc1`, for which the max response under setting [1] stood at 29.6% and the max response under setting [3] was found to be 37.8%. Further, the AC50 under setting [2] is 1.26 µM [rising, partial curve].
With `CN(C)c1ncc2nc(-c3cccc(C#N)c3)c(=O)n(C)c2n1`, the max response under setting [1] turned out to be 28.7% and the max response under setting [3] was found to be 32%. For the same compound, the AC50 under setting [2] is 3.55 µM [rising, full curve, poor fit].
As to `O=C(Nc1cccc(F)c1)N1CC[C@@]2(CCCN(S(=O)(=O)c3ccccc3)C2)C1`, the max response reads like this: under setting [1], 6.96%; under setting [3], 18.8%. Also, the concentration at half-maximal activity (AC50) under setting [2] is 2.51 µM [rising, single point].
In the case of `CN(C)c1nc(-c2ccccc2C(F)(F)F)nc2ccccc12`, the max response is 27.7% under setting [1] and 33.2% under setting [3]. Further, under setting [2], the concentration at half-maximal activity (AC50) was 7.08 µM [rising, partial curve].
In the case of `O=c1c(-c2ccccc2)nc2cnc(N3CCOCC3)nc2n1CCc1ccccc1`, the max response reads like this: under setting [1], 11.4%; under setting [3], 9.59%. Further, the concentration at half-maximal activity (AC50) under setting [2] was 0.02 µM [rising, full curve, poor fit].
As to `COCCn1c(=O)c(-c2ccccc2)nc2cnc(Oc3ccccc3)nc21`, the max response under setting [1] amounted to 6.88% and the max response under setting [3] stood at 5.24%. Moreover, the AC50 under setting [2] is 3.98 µM [rising, partial curve, poor fit].
As to `Cc1noc(C)c1C(=O)N1CCC2(CC1)CN(c1cccc(-c3ccccc3)c1)C2`, the max response under setting [1] is -9.2% and the max response under setting [3] is -43.1%. For the same compound, the concentration at half-maximal activity (AC50) under setting [2] is 20 µM [falling, single point].
On to `COc1cccc(Nc2ncc3nc(-c4ccccc4)c(=O)n(C4CC4)c3n2)c1`, for which the max response is -14.5% under setting [1] and -64.1% under setting [3]. The AC50 under setting [2] is 39.8 µM [falling, single point].
With `COc1cccc(-c2ccc3ncnc(NCc4cnc(C)cn4)c3c2)c1`, the max response runs as follows: under setting [1], -0.068%; under setting [3], -1.19%. Also, the concentration at half-maximal activity (AC50) under setting [2] is 3.98 µM [rising, partial curve, poor fit].
Turning to `C[N+]1(C)C2CCC1CC(OC(=O)C(O)c1ccccc1)C2` (stereo unspecified), the max response was determined as 23.5% under setting [1] and 37.9% under setting [3]. The AC50 under setting [2] was 39.8 µM [rising, single point].
As to `Cn1cccc1C(=O)N1CCC2(CC1)CCN(c1cccc(-c3ccccc3)c1)CC2`, the max response is -1.69% under setting [1] and -32.5% under setting [3]. In addition, the concentration at half-maximal activity (AC50) under setting [2] is 17.8 µM [falling, single point].
Consider `N#Cc1ccc(CN2CC[C@@]3(CCCN(C(=O)c4ccco4)C3)C2)cc1`, for which the max response is 21% under setting [1] and 30.4% under setting [3]. The AC50 under setting [2] was 1.41 µM [rising, full curve, poor fit].
Turning to `NS(=O)(=O)c1cc2c(cc1Cl)N[C@@H]([C@@H]1C[C@@H]3C=C[C@H]1C3)NS2(=O)=O`, the max response runs as follows: under setting [1], 21%; under setting [3], 32%. Moreover, under setting [2], the AC50 is 15.8 µM [rising, partial curve, poor fit].
In the case of `Cc1noc(C)c1-c1nccc(N(C)Cc2ccco2)n1`, the max response is 25.3% under setting [1] and 32.3% under setting [3]. The AC50 under setting [2] was 3.16 µM [rising, full curve, poor fit].
`NS(=O)(=O)c1cccc2c1c([N+](=O)[O-])cc1[nH]c(=O)c(=O)[nH]c12`: the max response by setting is: under setting [1], 14.3%; under setting [3], 23.5%. Moreover, the concentration at half-maximal activity (AC50) under setting [2] was 0.00282 µM [falling, full curve, poor fit].
As for `O=S(=O)(c1ccccc1)N1CCC[C@@]2(CCN(C(c3ccccc3)c3ccccc3)C2)C1`, the max response under setting [1] is 3.25% and the max response under setting [3] was 13.2%. Under setting [2], the half-maximal activity concentration (AC50) is 0.251 µM [rising, full curve, poor fit].
On to `COc1ccc2c(c1)OCC(Cc1ccc(OC)c(OC)c1)C2O` (stereo unspecified), for which the max response under setting [1] came to 23.1% and the max response under setting [3] stood at 37.1%. The AC50 under setting [2] is 0.501 µM [rising, partial curve].
